# Experimental data published in article PMC6919601, “Identification of Plasmodium dipeptidyl aminopeptidase allosteric inhibitors by high throughput screening” (PLoS ONE, 2019).
# Among all 110,000 compounds or so, about 230 (0.21%) showed an effect of 50% or more. Some of the results follow.
# Target: DPAP1 (Plasmodium falciparum, UniProt Q8IIJ9)
# Assay: primary screen, percent inhibition; read by cleavage of a fluorogenic dipeptide substrate; higher = more effect of the substance
# Set-up: species or system P. falciparum D10 trophozoite lysates; single well
# 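Note: 30 min substrate incubation versus DMSO and 10 µM JCP410 controls.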
# Sequence of DPAP1 (Q8IIJ9 whole entry, looked up): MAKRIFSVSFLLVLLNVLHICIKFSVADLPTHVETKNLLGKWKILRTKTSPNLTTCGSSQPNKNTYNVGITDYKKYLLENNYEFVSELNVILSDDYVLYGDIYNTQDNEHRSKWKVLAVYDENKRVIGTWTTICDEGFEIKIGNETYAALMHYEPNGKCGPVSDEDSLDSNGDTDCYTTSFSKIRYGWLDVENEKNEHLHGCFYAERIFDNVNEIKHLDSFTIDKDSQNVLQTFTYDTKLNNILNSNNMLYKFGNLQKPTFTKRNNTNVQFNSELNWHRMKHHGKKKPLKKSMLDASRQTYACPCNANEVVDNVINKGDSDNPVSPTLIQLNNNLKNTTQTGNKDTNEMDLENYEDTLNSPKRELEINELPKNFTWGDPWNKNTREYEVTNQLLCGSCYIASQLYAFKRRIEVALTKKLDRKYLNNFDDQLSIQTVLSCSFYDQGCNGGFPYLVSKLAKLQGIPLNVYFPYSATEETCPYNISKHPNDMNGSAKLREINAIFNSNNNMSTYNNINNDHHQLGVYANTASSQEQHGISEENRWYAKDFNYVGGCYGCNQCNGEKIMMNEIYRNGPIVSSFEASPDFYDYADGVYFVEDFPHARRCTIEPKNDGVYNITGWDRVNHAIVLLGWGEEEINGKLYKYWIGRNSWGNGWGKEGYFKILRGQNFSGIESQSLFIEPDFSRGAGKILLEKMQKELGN
row,Structure (SMILES),% Inhibition @ 10 uM [%]
1,O=C1NCCc2c1[nH]c1ccc(OCc3ccccc3)cc21,-1.91
2,CC(NC(=O)c1ccccc1)c1cc2c(cc1Br)OCCO2 (stereo not shown),-5.34
3,COc1ccc(C(=O)/C=C2\NC(=O)NC2=O)cc1,-0.053
4,CC1=C(C#N)C(NC(=O)CCc2ccccc2)(C(F)(F)F)C(=O)N1 (stereo not shown),0.00626
5,N#CC1=C(SCC(N)=O)NC(=O)CC1c1ccccc1Cl (stereo not shown),17
6,N#CC1=C(N)OC2=C(C(=O)CCC2)C1c1ccsc1 (stereo not shown),-4.68
7,COc1ccc(S(=O)(=O)N(CC(=O)Nc2ccc(Cl)cc2)c2ccccc2)cc1,0.00477
8,O=C(NCC1CCCO1)Nc1cccc2ccccc12 (stereo not shown),2.64
9,C=CCOc1ccc(CNc2ccc(N3CCOCC3)c(Cl)c2)cc1,-3.23
10,CC(=O)c1ccc(NC(=O)Cn2c(-c3cncs3)nc3ccccc32)cc1,-4.12
11,O=S(=O)(c1ccc2[nH]c3c(c2c1)CCCC3)N1CCN(Cc2ccccc2)CC1,-8.25
12,O=C(Cn1ccc2cc(S(=O)(=O)N3CCCC3)ccc21)NCc1ccccc1F,4.96
13,COc1ccc(C(=O)NCC2(c3ccc(OC)c(OC)c3)CCCC2)cc1,-3.76
14,CSC[n+]1cc(C(=O)c2ccccc2)ccc1N,-0.99
15,CCc1ccc(Oc2nc3c(C)cccn3c(=O)c2/C=C(\C#N)C(=O)NC2CCCCC2)cc1,-1.43
16,Cc1cccc(C(=O)Nc2ccc(-c3cn4ccsc4n3)cc2)c1,-0.366
17,O=C(CCc1cc(Cl)no1)N1CCC(c2c[nH]c3ccccc23)(c2c[nH]c3ccccc23)CC1,-0.637
18,O=C(NCCC1=CCCCC1)C1CCN(C(=O)c2cnn(-c3ccccc3)c2-n2cccc2)CC1,3.4
19,Cc1ccnc(NC(=O)c2ccc(C)c(C)c2)c1,2.64
20,Cc1cccc(NC(=O)CCCC(=O)Nc2cccc(C)c2)c1,-4.67
21,Cc1c(CN2C[C@@H]3C[C@H](C2)c2cccc(=O)n2C3)c(=O)n(-c2ccccc2)n1C,-3.63
22,CCOc1ccc(CCNC(=O)c2nnc(CS(=O)(=O)c3ccccc3)o2)cc1OCC,-0.602

row,Structure (SMILES),% Inhibition @ 10 uM [%]
1,COc1cc(OC)cc(C(=O)Nc2cccc(C)c2C)c1,2.13
2,CCN1CCN(C(=O)/C=C\C(=O)O)CC1,3.04
3,COc1ccc(S(=O)(=O)N2CCC(Cc3ccccc3)CC2)cc1OC,-5.06
4,COc1ccc2c(=O)cc(-c3ccc4c(c3)OCO4)n(C)c2c1,6.43
5,OCC1CCCN1Cc1ccc(Cl)cc1Cl (stereo not shown),-0.0494
6,Cc1nn(-c2ccccc2)c(-n2cccc2)c1C(=O)O,1.63
7,COc1cccc(CN2C(=O)c3ccccc3C2=O)c1,-5.15
8,CCC(CN1CCOCC1)NC(=O)C1CCN(c2ncnc3c2nc2n3CCCCC2)CC1 (stereo not shown),-2.46
9,CCOC(=O)N1CCC(NC(=O)C(=O)CC(=O)c2ccc(OC)cc2)CC1,4.01
10,Cn1c(COc2ccc(C(=O)O)cc2)nc2ccccc21,3.36
11,O=C(Nc1ccc(S(=O)(=O)N2CCCCCC2)cc1)c1ccco1,-2.56
12,NC(=O)CN1C(C(=O)c2ccccc2)=C(NCc2ccccc2)c2ccccc2S1(=O)=O,5.17
13,Cc1cc(C)c(S(=O)(=O)Nc2ccc(S(=O)(=O)N3CCCC3)cc2)c(C)c1,0.583
14,COc1ccc(-n2ncc3c(NCc4ccccc4Cl)ncnc32)cc1,2.07
15,NS(=O)(=O)c1ccc(NCCCC(=O)O)cc1,-6.71
16,Cc1cccc(C(=O)Nc2sc3c(c2C(N)=O)CCCC3)c1,7.98
17,CC(=O)Nc1cccc(NC(=O)C(C)Oc2ccc(Cl)cc2Cl)c1 (stereo not shown),-9.79
18,CC1=C(C(=O)Nc2ccc(Cl)cc2)C(c2ccc(Br)cc2)NC(=O)N1 (stereo not shown),-1.04
19,Cc1ccc(OCCN2C(=O)CSC2=O)cc1,1.63
20,Cc1ccc(OCC(=O)Nc2ccc(S(=O)(=O)NC(C)(C)C)cc2)c(C)c1,4.57
21,Cc1ccc(OCC(=O)Nc2cccc(C)n2)c(C)c1,7.54
22,CCCSc1ncc(Cl)c(C(=O)Nc2sc(C(=O)OCC)c(C)c2C(=O)OCC)n1,4.47

row,Structure (SMILES),% Inhibition @ 10 uM [%]
1,CCCOc1ccc(C2C(C#N)=C(N)Oc3cc(C)oc(=O)c32)cc1OC (stereo not shown),12.2
2,C=CC[C@](O)(c1ccccc1)[C@@H](O)c1ccccc1,0.851
3,O=S1(=O)CCC(S(=O)(=O)N(Cc2ccccc2)Cc2ccccc2)C1 (stereo not shown),-0.712
4,COc1ccc(NC(=O)c2ccccc2C)c(OC)c1,-3.15
5,CC(=O)Nc1ccc(S(=O)(=O)Nc2ccc(S(=O)(=O)Nc3ccc(F)cc3)cc2)cc1,-7.96
6,COC(=O)c1ccc(C2CC(=O)NC3=C2C(=O)CCC3)cc1 (stereo not shown),-3.21
7,Cc1ccc(C)c(OCC(=O)N2CCc3ccccc32)c1,-5.67
8,O=C(NCc1ccccc1Cl)c1ccc2c(c1)ncn2-c1ccc(F)cc1F,1.2
9,Cc1nn(C)c2c1c(-c1ccccc1)cc(=O)n2C(C)C(=O)N1CCC2(CC1)OCCO2 (stereo not shown),-6.31
10,CCOc1cc(C2C(C#N)=C(N)Oc3cc(N)ccc32)ccc1OC (stereo not shown),-7.52
11,O=S(=O)(Nc1ccccc1C(F)(F)F)c1cc(Cl)ccc1Cl,-4.91
12,COc1ccc(CNC2CCCCC2)c(OC)c1C,2.22
13,CCC1CCC(N(C)CCc2ccccn2)CC1 (stereo not shown),3.06
14,CC(=O)n1c(-c2ccccc2)c(-c2ccccc2)n(C)c1=O,-4.39
15,Cc1onc(-c2ccccc2)c1C(=O)Nc1cccc(Br)c1,-6.25
16,N#CC1=C(NC(=O)Cc2ccccc2)c2ccccc2CC12CCCC2,0.878
17,O=C1CC(c2cccc(F)c2)c2cc3c(cc2N1)OCO3 (stereo not shown),3.57
18,COc1ccc(N2C(=O)CC(N(Cc3ccc4c(c3)OCO4)C(=O)c3cccc(F)c3)C2=O)cc1 (stereo not shown),1.64
19,COc1ccccc1C(=O)Nc1ccc2nc(SCC(=O)N(C)C)sc2c1,-1.64
20,O=C(C1CCN(S(=O)(=O)c2cccc3nsnc23)CC1)N1CCN(Cc2ccccc2)CC1,1.9
